Data as given in US20240376128A1, “N-CYCLOPROPYLPYRIDO [4, 3-D] PYRIMIDIN-4-AMINE DERIVATIVES AND USES THEREOF” (Jacobio Pharmaceuticals Co., Ltd., priority 2021, published 2024).

Experiments:
K-Ras G12V [1] = target: T1, K-Ras G12V (Homo sapiens, UniProt P01116, G12V); assay: SOS1 catalyzed nucleotide exchange assay (GDP form K-Ras), TR-FRET; details: read-out: Biochemical assays, IC50, K-Ras G12V GDP
Description: The parameters were F486: Excitation 340 nm, Emission 486 nm, Lag time 100 pas, Integration time 200 pas; F515: Excitation 340 nm, Emission 515 nm, Lag time 100 pas, Integration time 200 pas. TR-FRET ratios for each individual wells were calculated by equation: TR-FRET ratio=(Signal F515/Signal F486)*10000.

K-Ras G12V [2] = target: T1, K-Ras G12V; assay: GTP-K-Ras (GppNp-K-Ras) and cRAF interaction assay, HTRF; details: read-out: Biochemical assays, IC50, K-Ras G12V GppNp
Excerpt: GppNp is an analog of GTP.

Question: How did the IC50 (K-Ras G12V [1]) turn out when `C#Cc1c(F)ccc2cc(O)cc(-c3nc(OC)c4c(NC5CC5)nc(OC[C@@]56CCCN5C[C@H](F)C6)nc4c3F)c12` [Compound 34, 4-(4-(cyclopropylamino)-8-fluoro-2-(((2R, 7aS)-2-fluorotetrahydro-1H-pyrrolizin-7a(5H)-yl)methoxy)-5-methoxypyrido[4,3-d]pyrimidin-7-yl)-5-ethynyl-6-fluoronaphthalen-2-ol] was run?
Answer: 24 nM

Question: And the IC50 (K-Ras G12V [2])?
Answer: > 1000 nM
